Source: article PMC10880305
Read-outs that look alike come from different tables or passages of the source. These are yes or no findings as the source states them, for the method shown. For some of these results: Binding seen in cells or lysates may run through a third protein. Some entries that bind do so weakly or less than the wild type. For some of these results: Sequences can lack the tags named with a protein. One block for each molecule: values may come before it.

By UniProt entry, the sequences of proteins in these tests, tags left out. Where a name states a change or a piece, a line headed by the entry shows the natural chain unless it says otherwise. Residues count along the entry.
UniProt Q9H3P7: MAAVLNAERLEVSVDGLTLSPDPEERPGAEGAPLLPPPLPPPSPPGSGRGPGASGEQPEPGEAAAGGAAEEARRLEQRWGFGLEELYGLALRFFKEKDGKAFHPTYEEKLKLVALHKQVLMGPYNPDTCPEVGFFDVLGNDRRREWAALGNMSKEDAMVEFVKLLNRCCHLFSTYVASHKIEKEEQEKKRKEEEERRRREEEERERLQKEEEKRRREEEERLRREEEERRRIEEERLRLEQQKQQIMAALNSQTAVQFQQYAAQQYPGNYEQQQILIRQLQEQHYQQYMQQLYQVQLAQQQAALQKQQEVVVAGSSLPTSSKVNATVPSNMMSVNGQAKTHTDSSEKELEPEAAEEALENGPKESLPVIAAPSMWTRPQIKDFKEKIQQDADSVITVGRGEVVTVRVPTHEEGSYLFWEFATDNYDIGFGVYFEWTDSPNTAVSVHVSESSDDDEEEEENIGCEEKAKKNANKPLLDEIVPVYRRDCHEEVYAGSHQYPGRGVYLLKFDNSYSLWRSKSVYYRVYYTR
UniProt P17301, residues 30-1181: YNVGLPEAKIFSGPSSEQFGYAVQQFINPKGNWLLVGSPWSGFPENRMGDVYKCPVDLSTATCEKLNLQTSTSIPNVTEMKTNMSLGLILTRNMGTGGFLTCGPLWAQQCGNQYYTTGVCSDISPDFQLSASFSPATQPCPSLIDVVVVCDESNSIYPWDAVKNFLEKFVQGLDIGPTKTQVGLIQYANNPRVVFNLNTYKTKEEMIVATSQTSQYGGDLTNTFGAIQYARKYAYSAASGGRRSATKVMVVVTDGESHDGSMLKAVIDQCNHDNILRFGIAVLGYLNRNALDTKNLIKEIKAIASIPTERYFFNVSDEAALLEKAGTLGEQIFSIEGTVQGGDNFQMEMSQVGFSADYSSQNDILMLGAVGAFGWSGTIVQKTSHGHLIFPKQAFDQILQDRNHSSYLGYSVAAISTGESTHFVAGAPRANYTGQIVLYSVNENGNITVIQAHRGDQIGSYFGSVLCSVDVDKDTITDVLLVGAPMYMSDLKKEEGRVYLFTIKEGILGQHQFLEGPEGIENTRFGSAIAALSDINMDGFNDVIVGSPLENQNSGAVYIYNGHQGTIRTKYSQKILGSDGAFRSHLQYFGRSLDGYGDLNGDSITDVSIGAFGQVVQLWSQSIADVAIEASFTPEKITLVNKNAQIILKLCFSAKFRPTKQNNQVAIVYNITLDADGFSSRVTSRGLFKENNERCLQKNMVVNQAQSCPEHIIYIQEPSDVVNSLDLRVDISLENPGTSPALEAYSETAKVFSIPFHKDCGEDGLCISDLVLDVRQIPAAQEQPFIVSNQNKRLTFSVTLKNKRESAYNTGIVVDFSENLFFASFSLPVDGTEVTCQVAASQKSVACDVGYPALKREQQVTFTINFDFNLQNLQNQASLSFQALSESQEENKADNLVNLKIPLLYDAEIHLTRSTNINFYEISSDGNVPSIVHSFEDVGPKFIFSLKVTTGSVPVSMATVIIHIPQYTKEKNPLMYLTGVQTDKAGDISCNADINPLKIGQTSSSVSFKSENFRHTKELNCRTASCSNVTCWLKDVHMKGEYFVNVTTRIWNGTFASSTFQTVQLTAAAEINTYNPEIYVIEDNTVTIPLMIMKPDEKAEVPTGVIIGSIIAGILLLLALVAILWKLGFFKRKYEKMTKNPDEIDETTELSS
UniProt P09471: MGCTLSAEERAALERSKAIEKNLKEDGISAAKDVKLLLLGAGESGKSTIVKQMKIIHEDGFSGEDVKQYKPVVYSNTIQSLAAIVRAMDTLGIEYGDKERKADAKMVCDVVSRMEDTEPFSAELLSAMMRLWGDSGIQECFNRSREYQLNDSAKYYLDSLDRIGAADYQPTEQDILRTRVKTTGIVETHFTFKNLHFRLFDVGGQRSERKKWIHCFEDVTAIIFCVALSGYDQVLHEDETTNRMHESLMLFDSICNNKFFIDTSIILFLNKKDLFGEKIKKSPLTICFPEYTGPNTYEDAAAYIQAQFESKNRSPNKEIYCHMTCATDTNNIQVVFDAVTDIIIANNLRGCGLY
UniProt Q8N6T3: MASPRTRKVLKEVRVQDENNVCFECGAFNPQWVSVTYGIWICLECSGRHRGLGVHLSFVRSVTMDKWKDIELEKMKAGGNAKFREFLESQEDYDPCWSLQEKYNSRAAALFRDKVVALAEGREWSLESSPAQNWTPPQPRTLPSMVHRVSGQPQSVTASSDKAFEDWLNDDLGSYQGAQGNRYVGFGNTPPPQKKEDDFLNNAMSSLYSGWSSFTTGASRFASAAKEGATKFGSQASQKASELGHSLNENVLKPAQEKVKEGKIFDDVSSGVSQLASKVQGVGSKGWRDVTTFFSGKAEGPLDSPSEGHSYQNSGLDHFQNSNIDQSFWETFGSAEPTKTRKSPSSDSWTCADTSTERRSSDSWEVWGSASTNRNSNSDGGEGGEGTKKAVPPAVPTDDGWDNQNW
UniProt P50148: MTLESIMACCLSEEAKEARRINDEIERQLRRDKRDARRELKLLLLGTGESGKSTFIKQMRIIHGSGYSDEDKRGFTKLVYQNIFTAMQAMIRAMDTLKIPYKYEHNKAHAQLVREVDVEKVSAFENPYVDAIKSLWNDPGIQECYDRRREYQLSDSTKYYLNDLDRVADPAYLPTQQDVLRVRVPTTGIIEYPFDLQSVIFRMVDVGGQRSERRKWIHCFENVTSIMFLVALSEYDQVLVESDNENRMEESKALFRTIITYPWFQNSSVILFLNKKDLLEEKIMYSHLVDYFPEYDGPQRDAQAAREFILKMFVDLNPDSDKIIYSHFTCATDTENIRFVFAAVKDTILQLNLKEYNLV
UniProt P63092: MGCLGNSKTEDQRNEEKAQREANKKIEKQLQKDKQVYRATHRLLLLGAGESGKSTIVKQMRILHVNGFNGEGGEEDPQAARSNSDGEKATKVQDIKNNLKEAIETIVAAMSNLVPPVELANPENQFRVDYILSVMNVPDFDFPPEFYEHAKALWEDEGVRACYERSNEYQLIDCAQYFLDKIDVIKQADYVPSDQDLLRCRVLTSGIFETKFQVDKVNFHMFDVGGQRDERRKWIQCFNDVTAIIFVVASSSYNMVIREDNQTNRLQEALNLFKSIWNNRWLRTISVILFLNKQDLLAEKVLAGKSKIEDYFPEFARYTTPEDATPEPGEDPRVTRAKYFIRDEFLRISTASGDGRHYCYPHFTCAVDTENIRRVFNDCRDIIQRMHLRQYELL

How the values were obtained:
[1] = molecular target: T1, Halo-KDELR-Flag-VN (human) (UniProt P24390); assay: split reporter; split Venus: HeLa cells co-transfected with Halo-KDELR-flag-VN and Gα-myc-VC or Gα-GDP-myc-VC for 18 h, confocal microscopy
T1 sequence: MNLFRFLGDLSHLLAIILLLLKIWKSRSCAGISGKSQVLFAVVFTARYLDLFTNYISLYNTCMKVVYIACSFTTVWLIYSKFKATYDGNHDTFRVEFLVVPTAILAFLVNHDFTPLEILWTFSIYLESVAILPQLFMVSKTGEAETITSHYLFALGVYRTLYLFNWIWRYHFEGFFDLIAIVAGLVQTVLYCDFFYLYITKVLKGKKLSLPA

KDELR-Cub (human) [2] = molecular target: T2, KDELR-Cub (human) (UniProt P24390); assay: two-hybrid; split-ubiquitin membrane yeast two-hybrid (MYTH), NMY51 yeast; KDELR-Cub-LexA-VP16 bait, NubG preys; growth on SD/-Ade/-Leu/-Trp/-His with X-α-Gal
T2 sequence: T1 sequence

KDELR-mCherry (human) = molecular target: T3, KDELR-mCherry (human) (UniProt P24390); assay: co-IP; anti-RFP agarose beads, HeLa lysates (20 mM HEPES pH 7.4, 100 mM NaCl, 2 mM DDM, 0.02% CHS), 4 h at 4 °C, western blot of endogenous partners
T3 sequence: T1 sequence

[3] = molecular target: T4, endogenously Flag-mCherry tagged KDELR (human (endogenous in HeLa)) (UniProt P24390); assay: as above
T4 sequence: T1 sequence

[4] = molecular target: T5, GST tagged KDELR C tail (human) (UniProt P24390); assay: pull-down; 100 ug GST fusion protein on glutathione Sepharose 4B incubated with cell lysate (A431 by results and legend) at 4 °C for 1 h, immunoblot; only the target purified
T5 sequence: GKKLSLPA

Halo-KDELR-V5-VN (human) = molecular target: T6, Halo-KDELR-V5-VN (human) (UniProt P24390); assay: split reporter; split Venus of two differently tagged copies in HeLa cells (EGFR-myc-VC/EGFR-Flag-VN; Halo-KDELR-V5-VN/Halo-KDELR-myc-VC), 50 μM TAEKDEL peptide, 30 nM EGF or DMSO, 0 or 30 min at 37 °C, confocal microscopy
T6 sequence: T1 sequence

KDELR-Cub (human) [5] = molecular target: T2, KDELR-Cub (human); assay: two-hybrid; split-ubiquitin membrane yeast two-hybrid (MYTH), NMY51 yeast; KDELR-Cub-LexA-VP16 bait, NubG preys; growth on SD/-Ade/-Leu/-Trp/-His with X-α-Gal; remark: listed apart in the source

Molecule: NubG-ACBD3 (from UniProt Q9H3P7 1-528)
binding (KDELR-Cub (human) [2]): binds

Molecule: integrin α2 (endogenous, HeLa) (from UniProt P17301 30-1181)
binding (KDELR-mCherry (human)): no binding
binding [3]: no binding

Molecule: Gαo-S47C-myc-VC (from UniProt P09471 1-354)
binding [1]: no binding

Molecule: ArfGAP1 (endogenous, HeLa) (from UniProt Q8N6T3 1-406)
binding (KDELR-mCherry (human)): binds
binding [3]: binds

Molecule: ArfGAP1 (endogenous, A431) (from UniProt Q8N6T3 1-406)
binding [4]: binds

B2: NubG-GLUT4 (protein, UniProt P14672 1-509)
chain: MPSGFQQIGSEDGEPPQQRVTGTLVLAVFSAVLGSLQFGYNIGVINAPQKVIEQSYNETWLGRQGPEGPSSIPPGTLTTLWALSVAIFSVGGMISSFLIGIISQWLGRKRAMLVNNVLAVLGGSLMGLANAAASYEMLILGRFLIGAYSGLTSGLVPMYVGEIAPTHLRGALGTLNQLAIVIGILIAQVLGLESLLGTASLWPLLLGLTVLPALLQLVLLPFCPESPRYLYIIQNLEGPARKSLKRLTGWADVSGVLAELKDEKRKLERERPLSLLQLLGSRTHRQPLIIAVVLQLSQQLSGINAVFYYSTSIFETAGVGQPAYATIGAGVVNTVFTLVSVLLVERAGRRTLHLLGLAGMCGCAILMTVALLLLERVPAMSYVSIVAIFGFVAFFEIGPGPIPWFIVAELFSQGPRPAAMAVAGFSNWTSNFIIGMGFQYVAEAMGPYVFLLFAVLLLGFFIFTFLRVPETRGRTFDQISAAFHRTPSLLEQEVKPSTELEYLGPDEND
binding (KDELR-Cub (human) [5]): no binding

Other lines, results leading:

binding [1]: no binding
Molecule: Gαq-myc-VC (from UniProt P50148 1-359)

binding [1]: no binding
Molecule: Gαs-S54C-myc-VC (from UniProt P63092 1-394)

binding [1]: no binding
Molecule: Gαo-myc-VC (from UniProt P09471 1-354)

binding [1]: no binding
Molecule: Gαq-S53C-myc-VC (from UniProt P50148 1-359)

binding (Halo-KDELR-V5-VN (human)): binds
B1: Halo-KDELR-V5-VN (receptor, UniProt P24390 1-212)
chain: T1 sequence
